# Test results taken from the supplement of paper PMC8183993.
# “And” between values parts separate entries of the source, which are not always exact repeats. Identical values can stand only once. Counter-ions that a name gives are not always drawn. ± gives the standard deviation of the averaged measurements. The full ranking holds about 3,200 compounds; the median of “nuclei count (viability) relative to DMSO” is about 99, and the lowest 2% start at about 16. Some of the results follow.
# Test system: U2OS
# Test: nuclei count (viability) relative to DMSO (% of DMSO); higher = more viable cells
# Conditions: 10 µM; 24 h
# Description: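 Primary image-based screen in U2OS cells: compounds at 10 uM for 24 h, then a 1 h o-propargyl-puromycin (OPP) pulse, click labelling, and high-throughput microscopy. Mean cytoplasmic OPP intensity and nuclei count were normalised to DMSO wells within each plate (DMSO = 100) and averaged over triplicate plates.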
row,Structure (SMILES),nuclei count
1,N=C(N)NC(=N)NCCc1ccccc1 [Phenformin hydrochloride],103 ± 8.1
2,COC(=O)[C@@H](N)CSC/C=C(\C)CC/C=C(\C)CCC=C(C)C [S-Farnesyl-L-cysteine methyl ester],109
3,CN1CCC(=C2c3ccccc3C=Cc3ccccc32)CC1 [Cyproheptadine hydrochloride],106 ± 0.78
4,CCc1c2c(nc3ccc(OC(=O)N4CCC(N5CCCCC5)CC4)cc13)-c1cc3c(c(=O)n1C2)COC(=O)[C@]3(O)CC [Irinotecan],51.6
5,CCc1c2c(nc3ccc(OC(=O)N4CCC(N5CCCCC5)CC4)cc13)-c1cc3c(c(=O)n1C2)COC(=O)[C@]3(O)CC [Irinotecan hydrochloride trihydrate],57
6,CCc1c2c(nc3ccc(OC(=O)N4CCC(N5CCCCC5)CC4)cc13)-c1cc3c(c(=O)n1C2)COC(=O)[C@]3(O)CC,56.5
7,CNCCC=C1c2ccccc2CCc2ccccc21 [Nortriptyline hydrochloride],101
8,OC[C@H]1O[C@@H](OCCc2ccc(O)cc2)[C@H](O)[C@@H](O)[C@@H]1O [Salidroside (Rhodioloside)],96.8
9,CC1=C(/C=C/C(C)=C/C=C/C(C)=C/C(=O)O)C(C)(C)CCC1O (centres undefined) [4-Hydroxyretinoic acid],101
10,C[C@H]1[C@H](NC(=O)/C(=N\OC(C)(C)C(=O)O)c2csc(N)n2)C(=O)N1S(=O)(=O)O [Aztreonam],111
11,"C[C@H]1[C@H](NC(=O)/C(=N\OC(C)(C)C(=O)O)c2csc(N)n2)C(=O)N1S(=O)(=O)O [Aztreonam (Azactam, Cayston)]",86
12,Cc1c(Cl)cccc1Nc1ncccc1C(=O)O [Clonixin Lysinate],98.6
13,CCC[C@H](NC(=O)/C(C#N)=C/c1cccc(Br)n1)c1ccccc1,5.45
14,Cc1ccc(/C(=C\CN2CCCC2)c2ccccn2)cc1 [trans-Triprolidine hydrochloride],102
15,Cc1ccc(/C(=C\CN2CCCC2)c2ccccn2)cc1 [Triprolidine hydrochloride],117
16,"C=C1/C(=C\C=C2/CCC[C@]3(C)[C@@H]([C@H](C)CCCC(C)(C)O)CC[C@@H]23)C[C@@H](O)C[C@@H]1O [1a,25-Dihydroxyvitamin D3]",92.6
17,C=C1/C(=C\C=C2/CCC[C@]3(C)[C@@H]([C@H](C)CCCC(C)(C)O)CC[C@@H]23)C[C@@H](O)C[C@@H]1O [Calcitriol (Rocaltrol)],110
18,CC(C)(O/N=C(\C(=O)N[C@@H]1C(=O)N2C(C(=O)[O-])=C(C[n+]3ccccc3)CS[C@H]12)c1csc(N)n1)C(=O)O [Ceftazidime pentahydrate],97.4
19,CN(Cc1ccccc1)C(=O)[C@H](Cc1ccc2ccccc2c1)NC(=O)[C@@H]1C[C@@H](O)CN1C(=O)c1cn(C)c2ccccc12,98
20,"Cc1cn([C@@H]2C[C@@H](O)[C@H](CO)O2)c(=O)[nH]c1=O [Telbivudine (Sebivo, Tyzeka)]",92.3
21,NC(=O)c1ncn([C@@H]2O[C@H](CO)[C@@H](O)[C@H]2O)c1O [Mizoribine (Bredinin)],103
22,CN1CCN(C(c2ccccc2)c2ccc(Cl)cc2)CC1 (centres undefined) [Chlorcyclizine hydrochloride],101

row,Structure (SMILES),nuclei count
1,O=C(N/N=C/c1ccc([N+](=O)[O-])o1)c1ccc(O)cc1 [Nifuroxazide],96.7
2,Cc1cccc(Nc2cc(Cl)nc(SCC(=O)O)n2)c1C,99.9 and 106
3,Cc1cc(NC(=O)c2cccc(NC(=O)/C=C/CN(C)C)c2)ccc1Nc1nccc(-c2cccnc2)n1,36.1
4,O=C(NC(NC(=S)Nc1ccc(F)c([N+](=O)[O-])c1)C(Cl)(Cl)Cl)C(c1ccccc1)c1ccccc1 (centres undefined),70.6 ± 4.2
5,N#CC(c1ccnc(NCCc2cccnc2)n1)c1nc2ccccc2s1 (centres undefined) [JNK Inhibitor V],71.6
6,OCc1ccc(O[C@@H]2O[C@H](CO)[C@@H](O)[C@H](O)[C@H]2O)cc1 [Gastrodin (Gastrodine)],94.5
7,CN(N=O)C(=O)N[C@@H](C=O)[C@@H](O)[C@H](O)[C@H](O)CO [Streptozocin],93.7
8,CN(N=O)C(=O)N[C@@H](C=O)[C@@H](O)[C@H](O)[C@H](O)CO [Streptozotocin],94.8
9,Cn1cc(C2=C(c3ccc(Cl)cc3Cl)C(=O)NC2=O)c2ccccc21,94.8 and 92.7
10,CCC(=O)[C@@]1(C)[C@H](C)C[C@H]2[C@@H]3CCC4=CC(=O)C=C[C@]4(C)[C@H]3[C@@H](O)C[C@@]21C [Rimexolone],100
11,Cc1ccc(C(=O)Nc2ccc(S(=O)(=O)O)c3cc(S(=O)(=O)O)cc(S(=O)(=O)O)c23)cc1NC(=O)c1cccc(NC(=O)Nc2cccc(C(=O)Nc3cc(C(=O)Nc4ccc(S(=O)(=O)O)c5cc(S(=O)(=O)O)cc(S(=O)(=O)O)c45)ccc3C)c2)c1 [Suramin hexasodium salt],93.5
12,CCc1cc(C(N)=S)ccn1 [Ethionamide],99.6
13,CC[C@]12CCCN3CCc4c(n(c5ccccc45)C(=O)C1)[C@@H]32 [Eburnamonine (-)],69.4
14,CCn1cc(C(=O)O)c(=O)c2cc(F)c(N3CCN(C)CC3)cc21 [Pefloxacine],105
15,NC(=O)c1ccncc1 [Isonicotinamide],99.6
16,CC#CCOC(=O)c1c(C)nc2sc3c(c2c1N)CCC(O)C3 (centres undefined),102
17,CCCCCCCCCCC(C)(C)C(=O)Nc1c(OC)cc(OC)cc1OC,102
18,C[C@@H]1CN(c2c(F)c(N)c3c(=O)c(C(=O)O)cn(C4CC4)c3c2F)C[C@H](C)N1 [Sparfloxacin],97.5
19,CCOC(=O)c1c(C)[nH]c2ccc3c(c12)CN1CCc2cc(OC)ccc2C1O3 (centres undefined),92.1
20,CC[C@@H]1Cn2c(c3nc(-c4ccccc4)nc-3n(C)c2=O)N1,93.4
21,COc1cc(NC(=O)c2ccc(-c3ccc(Cl)cc3)o2)cc(OC)c1,103
22,CCOC(=O)CCC(=O)O[C@H]1[C@H](O[C@@H]2[C@@H](C)[C@H](O[C@H]3C[C@@](C)(OC)[C@@H](O)[C@H](C)O3)[C@@H](C)C(=O)O[C@H](CC)[C@@](C)(O)[C@H](O)[C@@H](C)C(=O)[C@H](C)C[C@@]2(C)O)O[C@H](C)C[C@@H]1N(C)C [Erythromycin Ethylsuccinate],104
